Measurements from article PMC11336960.
Results are given in words; binding and its absence hold for the method and conditions named. Binding seen in cells or lysates may run through a third protein. Some results given as binding are weak or reduced against the parent protein; the word gives no strength. For some assays here: Sequences can lack the tags named with a protein.

The chains behind the UniProt entries cited, without tags or fusion partners. Residues count along the entry.
UniProt O00206, residues 24-839: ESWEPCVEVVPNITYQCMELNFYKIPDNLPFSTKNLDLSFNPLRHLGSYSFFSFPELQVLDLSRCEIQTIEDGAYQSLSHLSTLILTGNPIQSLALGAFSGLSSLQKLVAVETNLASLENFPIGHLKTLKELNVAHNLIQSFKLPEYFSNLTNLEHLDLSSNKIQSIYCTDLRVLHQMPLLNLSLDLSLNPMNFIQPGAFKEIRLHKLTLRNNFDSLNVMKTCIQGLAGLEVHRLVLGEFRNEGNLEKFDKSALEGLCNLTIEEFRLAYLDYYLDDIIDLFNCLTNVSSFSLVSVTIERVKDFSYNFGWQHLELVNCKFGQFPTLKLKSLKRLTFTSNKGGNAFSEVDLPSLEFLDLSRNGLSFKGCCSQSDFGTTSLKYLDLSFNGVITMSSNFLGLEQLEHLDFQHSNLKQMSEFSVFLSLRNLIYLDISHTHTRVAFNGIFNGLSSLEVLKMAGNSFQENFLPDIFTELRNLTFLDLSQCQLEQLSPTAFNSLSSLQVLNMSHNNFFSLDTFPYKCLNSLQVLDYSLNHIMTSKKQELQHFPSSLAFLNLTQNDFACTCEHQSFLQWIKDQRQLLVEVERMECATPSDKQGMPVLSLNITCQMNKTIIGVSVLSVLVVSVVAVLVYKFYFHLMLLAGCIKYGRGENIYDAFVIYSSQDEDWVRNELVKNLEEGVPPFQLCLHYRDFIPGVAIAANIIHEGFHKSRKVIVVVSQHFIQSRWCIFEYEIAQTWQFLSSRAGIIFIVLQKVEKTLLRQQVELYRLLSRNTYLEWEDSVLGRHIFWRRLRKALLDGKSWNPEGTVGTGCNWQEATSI
UniProt P07355: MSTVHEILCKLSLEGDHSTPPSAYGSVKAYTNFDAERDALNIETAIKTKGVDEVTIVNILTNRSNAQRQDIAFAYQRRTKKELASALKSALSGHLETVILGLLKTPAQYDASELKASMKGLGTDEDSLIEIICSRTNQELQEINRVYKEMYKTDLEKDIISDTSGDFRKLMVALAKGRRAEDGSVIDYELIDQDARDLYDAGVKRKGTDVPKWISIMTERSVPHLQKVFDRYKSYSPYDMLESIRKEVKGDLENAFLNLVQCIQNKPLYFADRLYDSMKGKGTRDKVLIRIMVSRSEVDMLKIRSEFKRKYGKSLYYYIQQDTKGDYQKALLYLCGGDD

What was measured:
[1] = target: TLR4 (Toll-like receptor 4) (UniProt O00206); assay: co-IP; co-IP of TLR4 and ANXA2 (Figure S9A); cells and constructs not shown
[2] = target: TLR4 (Toll-like receptor 4) (UniProt O00206); assay: co-IP; HEK293T cells co-expressing ANXA2 and TLR4 with or without NINJ1; ANXA2 or TLR4 immunoprecipitated from cell lysates, Western blotting
[3] = target: T1, NINJ1-C (79th-152th amino acids, lacking N-termini), Flag-tagged (UniProt Q92982); assay: co-IP; HEK293T cells co-transfected with Flag-tagged NINJ1 (full length or truncation) and HA-tagged ANXA2; precipitated by anti-Flag affinity gel, Western blotting for ANXA2 and HA
T1 sequence: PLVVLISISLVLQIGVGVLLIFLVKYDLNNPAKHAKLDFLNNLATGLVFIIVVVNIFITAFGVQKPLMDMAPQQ

[4] = target: T2, Flag-tagged NINJ1 (nerve injury-induced protein 1), wild type, full length (UniProt Q92982); assay: as above
T2 sequence: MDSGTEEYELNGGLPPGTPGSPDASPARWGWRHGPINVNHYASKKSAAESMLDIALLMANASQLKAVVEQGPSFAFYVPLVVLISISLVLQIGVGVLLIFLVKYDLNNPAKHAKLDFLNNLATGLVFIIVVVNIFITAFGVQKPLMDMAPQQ

[5] = target: T3, NINJ1-N (1st-137th amino acids, lacking C-termini), Flag-tagged (UniProt Q92982); assay: as above
T3 sequence: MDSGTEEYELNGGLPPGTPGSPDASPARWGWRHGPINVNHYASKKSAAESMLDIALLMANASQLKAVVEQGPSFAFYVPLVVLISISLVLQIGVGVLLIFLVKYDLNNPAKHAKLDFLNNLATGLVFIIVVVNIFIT

- binding [1]: binds
- binding [2]: binds
- binding [3]: binds
- binding [5]: no binding
Substance: HA-tagged ANXA2 (Annexin A2) (from UniProt P07355 1-339)
- binding [4]: binds
